Source: article PMC4365481, “ICAM-5 affects spine maturation by regulation of NMDA receptor binding to α-actinin” (Biology Open, 2015)

Target: T1, GST-α-actinin R2 (UniProt P05094 387-510)
T1 construct: alpha-actinin, spectrin repeat R2 of the rod domain; construct as described in Gilmore et al., 1994 and Nyman-Huttunen et al., 2006; also called R2 domain; GST-R2
Assay: pull-down; competition: 2 µg GST-α-actinin R2 on glutathione-sepharose, cross-linked with dimethyl pimelimidate; 1 ml of 250 nM ICAM-5 cytoplasmic domain with increasing amounts of His6-GluN1 cytoplasmic domain, RT 1 h; bound ICAM-5 by western blotting, band intensities fitted to an exponential decay curve
Conditions: both partners purified

GST-α-actinin R2, sequence (P05094 387-510): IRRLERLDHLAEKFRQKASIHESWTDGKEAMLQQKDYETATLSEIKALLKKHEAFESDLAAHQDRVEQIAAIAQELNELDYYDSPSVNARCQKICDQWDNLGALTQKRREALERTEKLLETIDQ

- IC50: ~340 nM
B1: His6-GluN1 cytoplasmic domain ([…]) (domain or fragment)
chain: not shown
notes: NMDA receptor subunit GluN1 (NR1), cytoplasmic domain, […]; also called GluN1 cytoplasmic peptide; source: E. coli BL21(DE3)pLysS, pET21b, purified; not shown: His6, C-terminal, kept
